Measurements as given in PubChem BioAssay AID1963576 (National Center for Advancing Translational Sciences (NCATS), 2024).
Among all 46,000 compounds or so, about 60 (0.1%) were called active. About 3% were inconclusive and are not listed. Calls follow the shape of the dose curve; as a rule, active = well fitted inhibition curve with a large enough effect; inconclusive = small, poorly fitted or top-dose-only effect; inactive = no such curve, though single readings can be large or run the other way. This is one part of the list.

test: Primary qHTS assay for Inhibitors of ovarian cancer metastasis using an organotypic tumor microenvironment (TME) model.; also: nearly all actives have a fitted effect of over 65% in size;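 as to activity change, negative = inhibition: plate controls were DMSO wells for no effect and tomatine positive control wells for full effect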; settings: SKOV3ip1-GFP adhesion/invasion on 3D omental model, fluorescence; series mostly up to 45.8 µM; activity change, negative = inhibition: at the top concentration
Outline: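 Adhesion/invasion was scored as fixed GFP-labeled SKOV3ip1 cell counts (488/509 nm), normalized to DMSO and tomatine controls. Cancer cells in serum-free medium, with four compound doses (0.36-46 umol/L), sat 2 hr at RT then 16 hr at 37 C on a 48 hr fibroblast/mesothelial/ECM culture.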

Activity change, negative = inhibition, inactive:
CC(=O)c1cccc(NC(=O)c2nc3ccccc3n(C)c2=O)c1 -8.18%, COc1cccc(CNC(=O)c2ccc3nc(-c4ccc(F)cc4)c(-c4ccc(F)cc4)nc3c2)c1 1.43%, COc1cc(C2c3c(-c4ccccc4O)n[nH]c3C(=O)N2CCO)ccc1OCc1ccccc1 (stereo not given) 18.9%, CC(C)c1ccc(S(=O)(=O)c2nnn3c2nc(N2CCN(C)CC2)c2sccc23)cc1 -2.13%, CCCc1cc(=O)n2[nH]c(NC(=O)c3ccc(C(C)(C)C)cc3)nc2n1 1.44%, COc1cc(NC(=O)C2CCN(c3cnc4ccccc4n3)CC2)cc(OC)c1OC -2.75%, CC1=C(C(=O)Nc2cccnc2)C(c2cccc(Br)c2)n2nc(SCc3ccccc3)nc2N1 (stereo not given) 18.7%, CCOc1ccc(CNC(=O)C2CCN(S(=O)(=O)N3CCC(C)CC3)CC2)cc1OC 8.69%, Cc1ccc(CNC(=O)COCc2cc(-c3cccs3)on2)cc1 11.8%, COc1ccc(C(=O)Nc2nc3nc(C)c(Cc4ccccc4)c(=O)n3[nH]2)cc1OC -2.7%, Cn1ccc2cc(S(=O)(=O)N3CCCC(C(=O)NCc4ccccc4)C3)ccc21 (stereo not given) -4.61%, Cc1cccc(-c2noc(-c3ccccc3NC(=O)C3CC(=O)N(c4ccccc4C)C3)n2)c1 (stereo not given) -6.42%, COc1ccc(S(=O)(=O)Nc2cccc(-c3ccc(N4CCC(C)CC4)nn3)c2)cc1OC -10.6%, COc1ccc(NC(=O)CCSc2nc(-c3ccc(OC)cc3)cc(C(F)(F)F)n2)cc1 6.71%, O=C(NCCS(=O)(=O)N1CCN(c2ccccc2)CC1)C1CC(=O)N(c2ccc(F)cc2)C1 (stereo not given) -26.9%, Cc1cc(-c2ccc(C)c(S(=O)(=O)NC(c3cccs3)C(C)C)c2)on1 (stereo not given) -15.6%, O=C(COc1ccc(F)cc1)OCc1cc(=O)n2nc(C3CCCCC3)sc2n1 -14.4%, COc1ccc(C(C(=O)NCc2ccccc2)N(C(=O)Cn2nnc3ccccc32)c2cccc(OC)c2)cc1 (stereo not given) -0.0494%, CC1=C(C(=O)N2CCN(c3cc(C)ccc3C)CC2)C2(CCC(C)CC2)OC1=O (stereo not given) -28.7%, Cc1ccc(NC(=O)Cn2cc(C(=O)C3CC3)c3ccccc32)c(C)c1 -14.5%, CCc1nnc(SCc2c(F)cccc2Cl)c2cc3sccc3n12 -2.72%, COc1ccccc1C(=O)Nc1nc2nc(C)cc(=O)n2[nH]1 -2.6%, Cc1cc(C)c2sc(NC(=O)c3ccc(S(=O)(=O)N4CCCC4)cc3)nc2c1 -5.97%, CCOC(=O)c1cccc(NC(=O)CCc2nc3cccnc3n2-c2ccccc2)c1 -11.2%, O=C(O)CSCC(=O)NC1CCSC1=O (stereo not given) 16.6%, Cc1cc2c(F)c(Oc3ncnn4cc(OC[C@@H](C)O)c(C)c34)ccc2[nH]1 7.6%, Cc1sc(-n2cccc2)c(C(C)NC(=O)Nc2cccc(C(F)(F)F)c2)c1C (stereo not given) -0.439%, CN(C)S(=O)(=O)N(CC(=O)Nc1ccc(C(F)(F)F)cc1)c1ccccc1 -9.95%, CCc1ccc(NC(=O)c2nc3nc(C)cc(C(F)F)n3n2)cc1 -6.31%, COc1ccccc1CNS(=O)(=O)c1cc(Br)cc2c1N(C(=O)C1CC1)CC2 -1.23%, COc1ccc(CNC(=O)c2ccc3c(c2)N(Cc2cc(C)ccc2C)C(=O)CS3)cc1 0.766%, O=C(CCC(=O)N1CCSc2ccccc21)Nc1ccc(Cl)cc1 -5.39%, COc1cccc2c1C(=O)c1c(O)c3c(c(O)c1C2=O)C[C@@](O)(C(C)=O)C[C@H]3O[C@H]1C[C@H](N)[C@H](O)[C@H](C)O1 1.76%, COc1cccc(CNC(=O)c2cc(-c3ccc(Cl)cc3)n[nH]2)c1 -5.69%, CCOc1cccc(C(=O)N(Cc2ccc(C)o2)C2CCS(=O)(=O)C2)c1 (stereo not given) 4.73%, Cc1cc(NS(=O)(=O)c2ccc(NC(=O)COc3c(C)ccc(C)c3C)cc2)nc(C)n1 7.58%, CCOc1ccc(-n2c(=O)c3c(C)c(C)sc3n(CC(=O)C(C)(C)C)c2=O)cc1 2.55%, CCOc1ccc(CC(=O)NC2CC(=O)N(c3cccc(F)c3)C2)cc1 (stereo not given) 1.62%, CC(CNC(=O)c1ccc2c(c1)nc1n2CCCCC1)c1ccccc1 (stereo not given) -8.88%, COc1ccccc1OCC(=O)N(Cc1ccco1)Cc1ccccc1F -6.74%, O=c1cc(COc2ccc(Cl)cc2Cl)nc2scc(-c3ccccc3)n12 -23.4%, CCCCC(=O)Nc1nnc(S(=O)(=O)N(C)Cc2ccc(Cl)cc2)s1 -2.75%, Cc1cc(C)cc(NC(=O)CCc2c(C)nc3nc(CNC(=O)c4cccc(F)c4)nn3c2C)c1 4.2%

outcome, inactive:
CC(=O)c1cccc(NC(=O)CN2C=NS(=O)(=O)c3ccc(C)cc32)c1, Cc1cccc(CNS(=O)(=O)c2ccc(-c3cnc(C4CC4)o3)cc2)c1, CCn1c(=O)c2cc(C(=O)Nc3cc(OC)c(OC)c(OC)c3)sc2c2ccccc21, CC1=C(C(=O)Nc2ccccc2C)C(c2ccncc2)n2nc(SCc3ccccc3Cl)nc2N1 (stereo not given), CC(C)CCNC(=O)c1ccc2c(c1)NC(=O)C(CS(=O)(=O)Cc1ccc(F)cc1)N2 (stereo not given), CCOc1ccc(NC(=O)C2(c3cccs3)CCOCC2)cc1, CCOC(=O)c1c(C)[nH]c(CCC(=O)Nc2cc(Cl)ccc2OC)c1C, O=C(CN1C(=O)COc2ccc(S(=O)(=O)NC3CCCC3)cc21)Nc1ccc(Cl)cc1F, COc1ccc(OC)c(S(=O)(=O)Nc2ccc3c(c2)n(C)c(=O)n3C)c1, CCOC(=O)c1c(C)oc2ccc(N(C(=O)c3ccncc3)S(=O)(=O)c3ccc(CC)cc3)cc12, COc1cc(OC)cc(C(=O)NCCc2csc3nc(-c4ccccc4F)nn23)c1, Cc1ccc(OCCSc2nc3ccc(NC(=O)c4cccs4)cc3s2)cc1, Cc1nc(N2CCOCC2)c2c(C(=O)NCc3ccc(Cl)cc3)c(C)oc2n1, COc1ccc(CNc2nc(-c3ccc(Cl)cc3)nn2S(=O)(=O)c2ccc(C)cc2)cc1, CCC(CC)c1nn2c(=O)cc(COc3ccc(NC(=O)c4cccc(C)c4)cc3)nc2s1, COc1ccccc1-c1nn2c(=O)cc(CN3CCN(C(=O)Nc4ccc(C)cc4Cl)CC3)nc2s1, Cc1ccc(C2C(=O)N(C3CCC(C)CC3)CC(=O)N2C2CCCC2)cc1 (stereo not given)
